According to patent US9266939B2, “Compositions comprising natriuretic peptides and methods of use thereof” (Alexion Pharmaceuticals, Inc., priority 2010, dated 2016):

How the values were obtained:
wild-type mice = conditions: mouse, in vivo
NPR-B = target: T1, NPR-B (Homo sapiens, UniProt P20594); test: Whole cell guanylyl cyclase (cGMP) assay, NPR-B; type: cell-based; design: expressed in transfected cells
T1 sequence (P20594 23-1047): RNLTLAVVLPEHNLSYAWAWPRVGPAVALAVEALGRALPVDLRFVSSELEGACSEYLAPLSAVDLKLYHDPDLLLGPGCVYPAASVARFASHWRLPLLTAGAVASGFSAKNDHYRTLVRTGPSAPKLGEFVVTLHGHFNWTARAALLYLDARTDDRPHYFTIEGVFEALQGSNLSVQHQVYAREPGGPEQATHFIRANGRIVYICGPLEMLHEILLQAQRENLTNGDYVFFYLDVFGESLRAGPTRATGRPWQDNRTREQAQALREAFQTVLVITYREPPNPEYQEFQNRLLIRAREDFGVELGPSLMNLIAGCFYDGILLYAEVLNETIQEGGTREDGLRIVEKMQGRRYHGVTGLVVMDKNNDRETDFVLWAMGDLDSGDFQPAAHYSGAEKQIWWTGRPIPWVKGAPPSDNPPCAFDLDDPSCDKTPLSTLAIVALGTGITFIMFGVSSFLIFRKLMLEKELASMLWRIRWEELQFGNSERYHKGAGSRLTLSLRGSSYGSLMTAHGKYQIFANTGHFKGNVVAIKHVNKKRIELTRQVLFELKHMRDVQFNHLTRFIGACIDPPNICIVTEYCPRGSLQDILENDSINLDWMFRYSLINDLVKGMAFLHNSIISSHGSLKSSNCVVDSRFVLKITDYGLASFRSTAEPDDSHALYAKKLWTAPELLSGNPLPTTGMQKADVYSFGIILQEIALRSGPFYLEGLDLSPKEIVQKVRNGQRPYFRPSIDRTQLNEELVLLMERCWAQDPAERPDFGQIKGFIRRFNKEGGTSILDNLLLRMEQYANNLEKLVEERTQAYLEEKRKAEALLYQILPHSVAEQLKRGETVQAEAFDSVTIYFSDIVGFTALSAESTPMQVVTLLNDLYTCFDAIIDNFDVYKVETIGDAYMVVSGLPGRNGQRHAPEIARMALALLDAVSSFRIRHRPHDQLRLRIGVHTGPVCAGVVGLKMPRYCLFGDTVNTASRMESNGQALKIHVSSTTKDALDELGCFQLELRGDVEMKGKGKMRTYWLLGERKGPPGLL
Experimental: HEK293S cells in a semi-confluent 75 cm2 flask are transfected with 30 μg of plasmid DNA coding for the appropriate receptor, e.g., human NPR-B or NPR-A, using Lipofectamine-2000CD. Alternatively, a stable polyclonal HEK293 S cell line expressing either human NPR-B or NPR-A was used. 24 hours after transfection, cells are trypsinized and plated into 48-well plates at 1×10^5 cells/well. Guanylyl cyclase assay is carried out 24 hours post-plating. Cells are first incubated for 30 minutes at 37° C. with serum-free DMEM medium. Then, they are incubated in triplicate with or without increasing concentrations of reference or test proteins in serum-free DMEM supplemented with 1 mM IBMX and 0.5% BSA, at 37° C. for 30 minutes to one hour. CNP serves as a suitable reference for NPR-B, while ANP is a suitable reference for NPR-A. Finally, cells are washed with ice-cold PBS and solubilized in lysis buffer from Catchpoint cGMP kit (Molecular devices). Concentrations of cGMP in lysate are determined using the Catchpoint cGMP kit. Dose-response curves are analysed with GraphPad Prism 5 software using non-linear regression with four-parameter logistic equation.

[1] = NC2st variants, NPR-B whole cell cGMP assay

B1: NC2B: NC2st without the sequence N-terminal to the Fc domain; SEQ ID NO: 504 (protein)
chain: [not shown - human IgG1 Fc]GGGGSGGGGSGGGGSGGLSKGCFGLKLDRIGSMSGLGC
modifications: Synthetic Construct (NC2B (w/o sig. seq.))
hypotensive (hemodynamic) effects (wild-type mice): limited and within an acceptable hemodynamic range at all tested doses
EC50 (NPR-B; NC2st variants without signal sequence, NPR-B whole cell cGMP assay): 818 nM
% Efficiency (NPR-B; [1]): 88%
EC50 Ratio versus CNP22 (NPR-B; [1]): 55.7
Rescue Ratio versus CNP22 (NPR-B; [1]): 79 ± 22
Rescue range (NPR-B; concentration producing cGMP as 2.4 nM (lower) and 14 nM (high) CNP22, X: cannot be determined): 187 to 1134 nM
